Several values for one entry are separate records, joined by “and”; a condition that tells them apart may be missing. Equal values may be shown once. In all, about 48,000 compounds went through this assay and about 1,200 (2.5%) were called active. About 2% were inconclusive and are not listed.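 Rule for the calls: active = activation of at least 60% and not above a set upper limit (about 1 call in 100 departs from these limits); inconclusive = activation of 40% to 60%, or above that upper limit; inactive = activation under 40%.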 The list shows a part of the results.
molecular target: Probable G-protein coupled receptor 32 (Homo sapiens) (UniProt O75388); test: qHTS for Agonists of Human Resolvin D1 Receptor DRV1; conditions: CHO-K1 GPR32 beta-arrestin PathHunter luminescence, 90 min; at 76.9 µM; stronger effect = higher value; zero percent set by DMSO-only wells; note: 0% is about no effect
Outline: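 Luminescent readout of beta-Gal complementation quantifies ligand-induced beta-arrestin association with GPR32 in CHO-K1 cells; 90 min compound incubation at 37 °C, detection 1 h at room temperature.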

Sequence of UniProt O75388 (O75388 whole entry, looked up): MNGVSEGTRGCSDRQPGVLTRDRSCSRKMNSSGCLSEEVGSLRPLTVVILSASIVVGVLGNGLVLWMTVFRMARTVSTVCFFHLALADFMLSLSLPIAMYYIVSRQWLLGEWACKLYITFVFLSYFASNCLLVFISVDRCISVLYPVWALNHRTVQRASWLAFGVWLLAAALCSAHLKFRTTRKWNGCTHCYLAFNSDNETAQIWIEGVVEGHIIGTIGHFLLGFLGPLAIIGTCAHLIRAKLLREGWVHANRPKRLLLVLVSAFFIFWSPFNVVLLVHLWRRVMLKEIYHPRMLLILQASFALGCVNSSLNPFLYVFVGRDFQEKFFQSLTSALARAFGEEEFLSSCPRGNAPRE

| SMILES | activation |
| --- | --- |
| C[C@]12CCC(=O)C=C1C=C[C@@H]1[C@@H]2CC[C@@]2(C)[C@H]1CC[C@@]21CCC(=O)O1 | inactive: -7.38% |
| CCc1nc2sc3c(N4CCC(C)CC4)ncnc3c2c2c1CCCC2 | inactive: 0.176% |
| Cc1nc2nc(SCc3c(F)cccc3Cl)nn2c(C)c1Cc1ccccc1 | inactive: -19.9% |
| CN(C)S(=O)(=O)c1ccc(C(=O)NCCS(=O)(=O)N2CCN(c3ccccc3)CC2)cc1 | inactive: -4.93% |
| Cc1ccc(-c2cc(-c3ccc4c(c3)NC(=O)CO4)nc3c2COc2ccc(C)cc2-3)cc1 | inactive: -10.9% |
| COc1ccc2c(c1)c(CC(=O)O)c(C)n2Cc1ccc(Cl)cc1 | inactive: -1.58% |
| COC(=O)[C@@H](N)Cc1ccc(O)c(O)c1 | inactive: -2.87% and inactive: -7.9% |
| Cc1cc(NC(=O)c2ccccc2Cl)ccc1NC(=O)c1ccccc1 | inactive: 48.2% |
| COc1ccc(-c2noc(COc3cc(C)c(Br)c(C)c3)n2)cc1OC | inactive: -6.26% |
| COc1ccc(OC)c(CNC(=O)c2cc3cc4ccc(OC)cc4nc3o2)c1 | inactive: -4.65% |
| Cc1cc(-n2c(C)nc3ccccc3c2=O)ccc1NC(=O)c1ccc(C)c([N+](=O)[O-])c1 | inactive: 11% |
| Cc1ccc(C(=O)/C=C/c2cn(CC(O)CN3CCc4ccccc43)c3ccccc23)cc1 (stereo not drawn) | inactive: -39.1% |
| Cc1ccc(O)c(NC(=O)c2noc3c2CCCCC3)c1 | inactive: -13.9% |
| COc1cccc(-n2cc(C(=O)Oc3cccc(C(F)(F)F)c3)c3ccccc3c2=O)c1 | inactive: -4.75% |
| O=C(CC1C(=O)N(c2ccc(F)cc2)C(=O)N1Cc1ccc2c(c1)OCO2)Nc1ccc(F)cc1 (stereo not drawn) | inactive: 0.707% |
| CC(=O)N1c2ccccc2CC1C(=O)N1CCN(c2cccc(Cl)c2)CC1 (stereo not drawn) | inactive: -4.89% |
| COc1cccc(CNC(=O)CN2C(=O)CCCc3ccccc32)c1OC | inactive: -1.43% |
| CCOc1ccc(OCC)c(NC(=O)C(NS(=O)(=O)c2ccc(Br)s2)c2ccccc2)c1 (stereo not drawn) | active: 84.9% |
| CCN(c1ncnc2c1cnn2-c1cc(Cl)ccc1C)C1CCCCC1 | inactive: -3.25% |
| Cc1ccc(C)c(CN2C(=O)c3ccccc3S(=O)(=O)c3ccc(C(=O)N4CCCC4)cc32)c1 | inactive: -20.9% |
| CCc1ccc(NC(=O)c2ccc3oc(=O)n(Cc4ccccc4)c3c2)cc1 | inactive: -0.249% |
| CCOC(=O)c1cnc2c(C)cccc2c1NCCc1ccc(OC)c(OC)c1 | inactive: -19.8% |
| Nc1c(-c2nc(-c3cccs3)no2)nnn1-c1cccc(F)c1 | inactive: 0.0772% |

Source: PubChem BioAssay AID1346428 (National Center for Advancing Translational Sciences (NCATS), 2018)
